In US11161864B2, “Sting agonists” (Venenum Biodesign, LLC, priority 2018, dated 2021):
Like-named read-outs stand apart in the source and are kept apart here.

How the values were obtained:
[1] = target: wildtype (WT) STING protein, THP1 Dual (WT) human cells (Homo sapiens (Human), UniProt Q86WV6, H232R); experiment: cell-based; settings: for Emax: THP1-Dual, 5 h; for EC50: Human WT Agonist EC50, 5 hrs
[2] = system: STING pathway, RAW-Dual Reporter cell line; experiment: cells
[3] = target: HAQ STING protein, THP1 Dual (HAQ) human cells (Homo sapiens (Human), UniProt Q86WV6, G230A/H232R/R293Q/R71H); experiment: cell-based; settings: for Emax: THP1-Dual, 5 h; for EC50: Human HAQ Agonist EC50, 5 hrs
[4] = read-out: Human WT Agonist Efficacy
[5] = Mus musculus, 5 h, read-out: Murine Agonist EC50
[6] = Mus musculus, 5 h, read-out: Murine Agonist Efficacy
[7] = read-out: Human HAQ Agonist Efficacy
[8] = read-out: Human WT Agonist Efficacy, 5 hrs
[9] = Mus musculus, 5 h, read-out: Murine Agonist EC50, 5 hrs
[10] = Mus musculus, 5 h, read-out: Murine Agonist Efficacy, 5 hrs
[11] = read-out: Human HAQ Agonist Efficacy, 5 hrs
[12] = read-out: Murine Agonist EC50, 5 hrs

Chain of HAQ STING protein, THP1 Dual (HAQ) human cells (Q86WV6 whole entry R71H/G230A/H232R/R293Q): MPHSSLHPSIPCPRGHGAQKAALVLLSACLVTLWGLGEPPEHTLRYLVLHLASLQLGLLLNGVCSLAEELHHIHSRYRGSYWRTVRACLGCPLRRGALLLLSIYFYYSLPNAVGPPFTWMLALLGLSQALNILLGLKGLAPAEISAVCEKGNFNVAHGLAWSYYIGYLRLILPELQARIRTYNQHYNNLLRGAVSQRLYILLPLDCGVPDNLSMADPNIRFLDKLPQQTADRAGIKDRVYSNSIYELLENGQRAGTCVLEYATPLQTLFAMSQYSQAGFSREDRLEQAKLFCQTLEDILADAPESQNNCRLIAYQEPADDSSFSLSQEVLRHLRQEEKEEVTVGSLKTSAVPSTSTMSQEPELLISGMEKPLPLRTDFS
Chain of wildtype (WT) STING protein, THP1 Dual (WT) human cells (Q86WV6 whole entry H232R): as the sequence (Q86WV6 whole entry R71H/G230A/H232R/R293Q) above, with H71R, A230G, Q293R counted along it

| Compound | EC50 [1] [µM] | EC50 [3] [µM] | Emax [1, 8] [%] | EC50 [2, 9] [µM] | Emax [2, 10] [%] | Emax [3, 11] [%] | also measured |
| --- | --- | --- | --- | --- | --- | --- | --- |
| N#Cc1cnc2c(c1)nc1n2CCOP(=O)(S)OC[C@H]2O[C@@H](n3cnc4c(=O)[nH]c(N)nc43)[C@H](OP(=O)(S)OC1)[C@@H]2F (single isomer, unassigned) [Example 38A] |  |  |  |  |  |  | Emax [1, 4]: < 100%; EC50 [2, 5]: < 10 µM; Emax [2, 6]: > 100%; Emax [3, 7]: > 100% |
| NC(=O)c1cnc2c(c1)nc1n2CCOP(=O)(S)OC[C@H]2O[C@@H](n3cnc4c(=O)[nH]c(N)nc43)[C@H](OP(=O)(S)OC1)[C@@H]2F (stereo partly drawn) [Example 37A, (1S,21R,23R,24R)-23-(2-Amino-6-oxo-6,9-dihydro-1H-purin-9-yl)-24-fluoro-3,18-dioxo-3,18-disulfanyl-2,4,17,19,22-pentaoxa-7,12,14-triaza-3lambda,5,18lambda5-diphosphater] | < 10 | < 10 |  |  |  |  | Emax [1, 4]: < 100%; EC50 [2, 5]: < 10 µM; Emax [2, 6]: > 100%; Emax [3, 7]: > 100% |
| Nc1nc2c(nc3n2CCOP(=O)(S)OC[C@H]2O[C@@H](n4cnc5c(N)ncnc54)[C@H](OP(=O)(S)OC3)[C@@H]2F)c(=O)[nH]1 (stereo partly drawn) [Example 23B, (1S,21R,23R,24R)-11-Amino-23-(6-amino-9H-purin-9-yl)-24-fluoro-3,18-disulfanyl-2,4,17,19,22-pentaoxa-7,10,12,14-tetraaza-3lambda5,18lambda5-diphosphatetracyclo[19.2.1.06,14.08,13]tetracosa-6,8(13),11-triene-3,9,18-trione] |  |  | < 100 | 10 to 99.9 | < 100 | > 100 |  |
| Nc1nc2c(ncn2[C@@H]2O[C@@H]3COP(=O)(O)OCCn4c(nc5cncnc54)COP(=O)(O)O[C@@H]2[C@@H]3F)c(=O)[nH]1 [Example 4, (1S,21R,23R,24R)-23-(2-Amino-6-oxo-6,9-dihydro-1H-purin-9-yl)-24-fluoro-3,18-dihydroxy-2,4,17,19,22-pentaoxa-7,10,12,14-tetraaza-3lambda5,18lambda5-diphosphatetracyclo[19.2.1.06,14.08,13]tetracosa-6,8(13),9,11-tetraene-3,18-dione] | 100 to 999 | 10 to 99.9 | > 100 | 10 to 99.9 | > 200 | < 100 |  |
| Nc1nc2c(ncn2[C@@H]2O[C@@H]3COP(=O)(S)OCCn4c(nc5cncnc54)COP(=O)(S)O[C@@H]2[C@@H]3O)c(=O)[nH]1 (stereo partly drawn) [Example 15A, (1R,21R,23R,24R)-23-(2-Amino-6-oxo-6,9-dihydro-1H-purin-9-yl)-24-hydroxy-3,18-disulfanyl-2,4,17,19,22-pentaoxa-7,10,12,14-tetraaza-3lambda5,18lambda5-diphosphatetracyclo[19.2.1.06,14.08,13]tetracosa-6,8,10,12-tetraene-3,18-dione] |  |  | < 100 |  | > 100 | > 100 |  |
| CO[C@H]1[C@H]2OP(=O)(S)OCc3nc4cncnc4n3CCOP(=O)(S)OC[C@H]1O[C@H]2n1cnc2c(=O)[nH]c(N)nc21 (stereo partly drawn) [Example 27B, (1R,21R,23R,24R)-23-(2-Amino-6-oxo-6,9-dihydro-1H-purin-9-yl)-24-methoxy-3,18-disulfanyl-2,4,17,19,22-pentaoxa-7,10,12,14-tetraaza-3lambda5,18lambda5-diphosphatetracyclo[19.2.1.06,14.08,13]tetracosa-6,8,10,12-tetraene-3,18-dione] |  |  | < 100 |  | < 100 | < 100 |  |
| Nc1nc2c(ncn2[C@@H]2O[C@@H]3COP(=O)(S)OCC(F)(F)Cn4c(nc5cncnc54)COP(=O)(S)O[C@@H]2[C@@H]3F)c(=O)[nH]1 (stereo partly drawn) [Example 19A, (1S,22R,24R,25R)-24-(2-Amino-6-oxo-6,9-dihydro-1H-purin-9-yl)-16,16,25-trifluoro-3,19-disulfanyl-2,4,18,20,23-pentaoxa-7,10,12,14-tetraaza-3lambda5,19lambda5-diphosphatetracyclo[20.2.1.06,14.08,13]pentacosa-6,8,10,12-tetraene-3,19-dione] |  |  | < 100 |  | < 100 | < 100 |  |
| Nc1nc2c(nnn2[C@@H]2O[C@@H]3COP(=O)(S)OCCn4c(nc5cncnc54)COP(=O)(S)O[C@@H]2[C@@H]3F)c(=O)[nH]1 (single isomer, unassigned) [Example 24B] |  |  | < 100 |  | < 100 | < 100 | EC50 [2, 12]: 10 to 99.9 µM |
| Nc1nc2c(ncn2[C@@H]2O[C@@H]3COP(=O)(S)OCCn4c(nc5c(N)ncnc54)COP(=O)(S)O[C@@H]2[C@@H]3F)c(=O)[nH]1 (single isomer, unassigned) [Example 7A] | 100 to 999 | < 10 |  | < 10 |  |  |  |
| Nc1nc2c(ncn2[C@@H]2O[C@@H]3COP(=O)(S)OCCn4c(nc5c(=O)[nH]cnc54)COP(=O)(S)O[C@@H]2[C@@H]3F)c(=O)[nH]1 (single isomer, unassigned) [Example 3B] |  |  | < 100 | < 10 | > 100 | < 100 |  |
| Nc1nc2c(ncn2[C@@H]2O[C@@H]3COP(=O)(S)OCCn4c(nc5cnc(C6CC6)nc54)COP(=O)(S)O[C@@H]2[C@@H]3F)c(=O)[nH]1 (stereo partly drawn) [Example 12D, (1S,21R,23R,24R)-23-(2-Amino-6-oxo-6,9-dihydro-1H-purin-9-yl)-11-cyclopropyl-24-fluoro-3,18-disulfanyl-2,4,17,19,22-pentaoxa-7,10,12,14-tetraaza-3lambda5,18lambda5-diphosphatetracyclo[19.2.1.06,14.08,13]tetracosa-6,8,10,12-tetraene-3,18-dione] |  |  | < 100 |  | > 100 | < 100 |  |
| C[C@H]1COP(=O)(S)OC[C@H]2O[C@@H](n3cnc4c(=O)[nH]c(N)nc43)[C@H](OP(=O)(S)OCc3nc4cncnc4n31)[C@@H]2F (stereo partly drawn) [Example 20D, (1S,15S,21R,23R,24R)-23-(2-Amino-6-oxo-6,9-dihydro-1H-purin-9-yl)-24-fluoro-15-methyl-3,18-disulfanyl-2,4,17,19,22-pentaoxa-7,10,12,14-tetraaza-3lambda5,18lambda5-diphosphatetracyclo[19.2.1.06,14.08,13]tetracosa-6,8,10,12-tetraene-3,18-dione] |  |  | < 100 |  | < 100 | > 100 |  |
| Nc1nc2c(ncn2[C@@H]2O[C@@H]3COP(=O)(S)OCCn4nc(-c5cncs5)nc4COP(=O)(S)O[C@@H]2[C@@H]3F)c(=O)[nH]1 (stereo partly drawn) [Example 16A, (1S,17R,19R,20R)-19-(2-Amino-6-oxo-6,9-dihydro-1H-purin-9-yl)-20-fluoro-3,14-disulfanyl-8-(1,3-thiazol-5-yl)-2,4,13,15,18-pentaoxa-7,9,10-triaza-3lambda5,14lambda5-diphosphatricyclo[15.2.1.06,10]icosa-6,8-diene-3,14-dione] |  |  | < 100 |  | > 100 | > 100 |  |
| Nc1nc2c(ncn2[C@@H]2O[C@@H]3COP(=O)(S)OCCn4c(nc5cncnc54)COP(=O)(S)O[C@@H]2[C@H]3F)c(=O)[nH]1 (single isomer, unassigned) [Example 25B] | 100 to 999 | 100 to 999 |  |  |  |  | EC50 [2, 12]: 100 to 999 µM |
| CO[C@H]1[C@H]2OP(=O)(S)OCc3nc4cncnc4n3CCOP(=O)(S)OC[C@H]1O[C@H]2n1cnc2c(=O)[nH]c(N)nc21 (single isomer, unassigned) [Example 27B] | 100 to 999 | < 10 |  | 10 to 99.9 |  |  |  |
| Nc1nc2c(ncn2[C@@H]2O[C@@H]3COP(=O)(S)OCCn4c(nc5c(N)ncnc54)COP(=O)(S)O[C@@H]2[C@@H]3F)c(=O)[nH]1 (stereo partly drawn) [Example 7A, (1S,21R,23R,24R)-9-Amino-23-(2-ammo-6-oxo-6,9-dihydro-1H-purin-9-yl)-24-fluoro-3,18-disulfanyl-2,4,17,19,22-pentaoxa-7,10,12,14-tetraaza-3lambda5,18lambda5-diphosphatetracyclo[19.2.1.06,14.08,13]tetracosa-6,8(13),9,11-tetraene-3,18-dione] |  |  | < 100 |  | > 100 | > 100 |  |
| C[C@H]1COP(=O)(S)OC[C@H]2O[C@@H](n3cnc4c(=O)[nH]c(N)nc43)[C@H](OP(=O)(S)OCc3nc4cncnc4n31)[C@@H]2F (single isomer, unassigned) [Example 20D] | 100 to 999 | 10 to 99.9 |  | 10 to 99.9 |  |  |  |
| Nc1ncnc2c1ncn2[C@@H]1O[C@@H]2COP(=O)(S)OCCn3c(nc4cncnc43)COP(=O)(S)O[C@@H]1[C@@H]2O (stereo partly drawn) [Example 8, (1R,21R,23R,24R)-23-(6-Amino-9H-purin-9-yl)-24-hydroxy-3,18-disulfanyl-2,4,17,19,22-pentaoxa-7,10,12,14-tetraaza-3lambda5,18lambda5-diphosphatetracyclo[19.2.1.06,14.08,13]tetracosa-6,8(13),9,11-tetraene-3,18-dione] | 100 to 999 | 10 to 99.9 | < 100 | 100 to 999 | < 100 | < 100 |  |
| Nc1nc2c(ncn2[C@@H]2O[C@@H]3COP(=O)(S)OCCn4c(nc5cnccc54)COP(=O)(S)O[C@@H]2[C@@H]3F)c(=O)[nH]1 (single isomer, unassigned) [Example 17C] | 10 to 99.9 | < 10 |  | < 10 |  |  |  |
| Nc1nc2c(ncn2[C@@H]2O[C@@H]3COP(=O)(S)OCCCn4c(nc5cncnc54)COP(=O)(S)O[C@@H]2[C@@H]3O)c(=O)[nH]1 (stereo partly drawn) [Example 9, (1R,22R,24R,25R)-24-(2-Amino-6-oxo-6,9-dihydro-1H-purin-9-yl)-25-hydroxy-3,19-disulfanyl-2,4,18,20,23-pentaoxa-7,10,12,14-tetraaza-3lambda5,19lambda5-diphosphatetracyclo[20.2.1.06,14.08,13]pentacosa-6,8,10,12-tetraene-3,19-dione] | 100 to 999 | 10 to 99.9 | < 100 | 10 to 99.9 | < 100 | > 100 |  |
